Laboratory results reported in the BET-seq Pho4 binding data (Le et al. 2018).
The list shows a part of the results. The energies were worked out here from pooled read counts, against the library average; single values are noisy.

Target: T1, Pho4 (S. cerevisiae) (UniProt P07270)
T1 sequence: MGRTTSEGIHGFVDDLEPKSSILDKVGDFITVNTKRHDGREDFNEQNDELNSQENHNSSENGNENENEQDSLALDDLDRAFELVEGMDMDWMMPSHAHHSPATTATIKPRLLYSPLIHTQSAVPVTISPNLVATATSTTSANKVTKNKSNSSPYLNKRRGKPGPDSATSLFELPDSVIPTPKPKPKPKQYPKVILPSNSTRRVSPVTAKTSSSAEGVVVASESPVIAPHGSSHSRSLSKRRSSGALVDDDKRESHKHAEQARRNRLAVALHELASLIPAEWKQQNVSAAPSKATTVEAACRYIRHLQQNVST
Experiment: relative binding free energy (BET-seq); higher = weaker binding
Details: reference: library average

Sequence	relative binding free energy
GTTTACACGTGCGGTC	0.26 kcal/mol
ATGTTCACGTGAGGAC	0.44 kcal/mol
GTTTACACGTGGTATT	0.08 kcal/mol
GTAGGCACGTGGTTGA	-0.14 kcal/mol
GGGCGCACGTGTGAGA	-0.02 kcal/mol
TGGGCCACGTGGCGGA	-0.17 kcal/mol
TAGGGCACGTGAAGTT	0.16 kcal/mol
CTGCACACGTGGGGGG	-0.14 kcal/mol
TAGTACACGTGGCAGG	0.06 kcal/mol
ATTGCCACGTGGAAGT	-0.01 kcal/mol
GAAATCACGTGTGGGT	0.27 kcal/mol
GATTTCACGTGCGTAG	0.4 kcal/mol
GTTAACACGTGAAGTG	0.28 kcal/mol
GGTTGCACGTGCGTGT	0.1 kcal/mol
TGCGTCACGTGTAGAA	0.13 kcal/mol
GTTGTCACGTGAATTA	0.35 kcal/mol
ATCTGCACGTGTGTAG	0.07 kcal/mol
GGGGGCACGTGCACAG	-0.13 kcal/mol
GGGTCCACGTGCTTAG	0.14 kcal/mol
GATGGCACGTGAATTG	0.2 kcal/mol
TGGGGCACGTGTTGGC	-0.02 kcal/mol
CCGTTCACGTGGGGTT	0.16 kcal/mol
AGCGGCACGTGTAGGT	-0.04 kcal/mol
CTCGGCACGTGGGCGG	-0.21 kcal/mol
ATTGCCACGTGATTGT	0.03 kcal/mol

Sequence	relative binding free energy
ACGTTCACGTGGGTTA	0.11 kcal/mol
GGTGACACGTGGTTGA	0.08 kcal/mol
TATTTCACGTGCGGGG	0.29 kcal/mol
CGGGGCACGTGATTTG	0.01 kcal/mol
GGGGACACGTGAGGCG	0.18 kcal/mol
AGTCTCACGTGTGTTT	0.14 kcal/mol
GGGGGCACGTGATTTC	0.07 kcal/mol
AGTTACACGTGTTATT	0.11 kcal/mol
ATGTTCACGTGTTTTT	0.36 kcal/mol
CGGGACACGTGGTAAG	-0.03 kcal/mol
TATTGCACGTGGTCGT	-0.14 kcal/mol
TGCGGCACGTGTGCAG	0.03 kcal/mol
AAGGCCACGTGGGGGG	-0.09 kcal/mol
TTATTCACGTGGACGT	0.31 kcal/mol
TGGTGCACGTGCACTG	0 kcal/mol
GTACGCACGTGGGTAA	-0.21 kcal/mol
CGCGGCACGTGAGGAG	0.03 kcal/mol
GTGTTCACGTGAGTAT	0.46 kcal/mol
ATCCTCACGTGTGTTG	0.3 kcal/mol
TGGTTCACGTGAGTTT	0.46 kcal/mol
AGACGCACGTGGAGTG	-0.2 kcal/mol
AGGTGCACGTGGCTTA	-0.15 kcal/mol
GGAAGCACGTGGAGTT	-0.15 kcal/mol
GTCAACACGTGTGGTG	0.17 kcal/mol
GGTGGCACGTGTTTGG	0.01 kcal/mol

Sequence	relative binding free energy
TATAGCACGTGAGGTG	0.15 kcal/mol
TGTGGCACGTGTCTGG	-0.06 kcal/mol
GACTACACGTGGTGTT	0.06 kcal/mol
GTGTTCACGTGGGAAA	0.19 kcal/mol
GTGATCACGTGTTTAT	0.03 kcal/mol
GAGTGCACGTGACTGG	0.05 kcal/mol
TTAGGCACGTGAATAG	0.17 kcal/mol
GGTAACACGTGTTATA	-0.02 kcal/mol
GGGTGCACGTGCGAAT	0.08 kcal/mol
GCGAGCACGTGGGGGC	-0.19 kcal/mol
AATTACACGTGGGTAC	0.2 kcal/mol
ATTGACACGTGAATGG	0.23 kcal/mol
GATTGCACGTGTTTAG	0.2 kcal/mol
ATTGTCACGTGATAGT	0.15 kcal/mol
CTTTGCACGTGTATGG	0.06 kcal/mol
ATTGGCACGTGTGATC	0.04 kcal/mol
GGGTGCACGTGGCTAG	-0.07 kcal/mol
TATAGCACGTGCGTAG	-0.1 kcal/mol
GTATTCACGTGTAGCT	0.31 kcal/mol
CGTAGCACGTGTTAGG	-0.04 kcal/mol
GACGTCACGTGATGGT	0.27 kcal/mol
GTCTGCACGTGTGTAA	0.1 kcal/mol
GGGGGCACGTGGCTTT	-0.13 kcal/mol
GTGCACACGTGTATGG	0.01 kcal/mol
GAGGTCACGTGATGGG	0.37 kcal/mol

Sequence	relative binding free energy
ATTAACACGTGGTTGA	-0.07 kcal/mol
ATATGCACGTGTGGGT	-0.02 kcal/mol
GTTAGCACGTGCTTGT	-0.1 kcal/mol
TTCAACACGTGGTTTA	-0.14 kcal/mol
ATGGCCACGTGGGCTG	-0.26 kcal/mol
GGTTTCACGTGATAGC	0.51 kcal/mol
TGATTCACGTGGGGCC	0.11 kcal/mol
TATCGCACGTGTTTGA	-0.06 kcal/mol
TTGTACACGTGCCTTT	0.07 kcal/mol
CGATGCACGTGGTGGA	-0.07 kcal/mol
GGGTACACGTGCTCGT	0.12 kcal/mol
GAGTACACGTGTGTGC	0.16 kcal/mol
TTTTACACGTGCTATG	0.05 kcal/mol
ATTTGCACGTGTCTTA	-0.04 kcal/mol
AGCGGCACGTGGGGGG	-0.25 kcal/mol
GGTGTCACGTGTGCGG	0.15 kcal/mol
GGGAGCACGTGGTTAC	-0.02 kcal/mol
TACTTCACGTGTTTTT	0.28 kcal/mol
GACGACACGTGGGGGG	-0.19 kcal/mol
GAGTACACGTGTGTTG	0.05 kcal/mol
TAGTGCACGTGTTTGA	-0.01 kcal/mol
GTTTTCACGTGTGTCT	0.35 kcal/mol
GAGAGCACGTGCTTGG	-0.11 kcal/mol
ACCGGCACGTGCAGGG	0.06 kcal/mol
TAGTTCACGTGGCTCG	0.28 kcal/mol

Sequence	relative binding free energy
GTTCTCACGTGTACGT	0.28 kcal/mol
CGGTTCACGTGTGTTT	0.33 kcal/mol
TCTTACACGTGGTTGT	0.14 kcal/mol
GGGGCCACGTGTAGTT	-0.05 kcal/mol
GTCTGCACGTGTCGTT	0.22 kcal/mol
TATCGCACGTGTGTTG	-0.1 kcal/mol
CGTTCCACGTGGGGTT	-0.28 kcal/mol
AGTAGCACGTGGAGCA	0.1 kcal/mol
AGATTCACGTGATCGT	0.33 kcal/mol
ATACTCACGTGGGTCG	0.1 kcal/mol
CGGTTCACGTGTGGAG	0.33 kcal/mol
GGTTGCACGTGTGTAG	-0.01 kcal/mol
AGGTTCACGTGGGACA	0.18 kcal/mol
AGGGGCACGTGTACGT	-0.11 kcal/mol
TGAATCACGTGGGGTA	0.02 kcal/mol
AAAAGCACGTGGGGAT	-0.11 kcal/mol
TGGGTCACGTGGCGAA	-0.12 kcal/mol
AGGTTCACGTGGTGTG	0.16 kcal/mol
ATGTGCACGTGGGTTT	-0.13 kcal/mol
TTGGGCACGTGATCGC	-0.02 kcal/mol
TTTAACACGTGATTAA	0.23 kcal/mol
CATATCACGTGGGGGG	-0.08 kcal/mol
CTTTCCACGTGTGTAT	0.13 kcal/mol
TTTATCACGTGTGCTG	0.13 kcal/mol
GGCTTCACGTGCTTGG	0.38 kcal/mol

Sequence	relative binding free energy
GGCTTCACGTGGTGAG	0.25 kcal/mol
GGTGGCACGTGAATTT	0.32 kcal/mol
CTGTTCACGTGTGGAC	0.4 kcal/mol
TTGAGCACGTGTATCG	-0.11 kcal/mol
AAATACACGTGTGGGG	0.07 kcal/mol
GGCTTCACGTGTGCTG	0.26 kcal/mol
GTGCACACGTGCCGGT	0.15 kcal/mol
AGTTTCACGTGGGAGA	0.31 kcal/mol
GATGTCACGTGTCAGG	0.13 kcal/mol
GGTGGCACGTGGGAAC	-0.04 kcal/mol
TTGCTCACGTGTAGAA	0.28 kcal/mol
TCTTTCACGTGAAATT	0.44 kcal/mol
TCCTTCACGTGTGGTG	0.37 kcal/mol
TGGAGCACGTGTAGGT	-0.04 kcal/mol
AGAAGCACGTGATGTT	0.08 kcal/mol
ATGTGCACGTGGGGTA	-0.13 kcal/mol
TTTAGCACGTGTGATT	0.02 kcal/mol
GAGGTCACGTGGATCT	0.31 kcal/mol
GGATGCACGTGGGTAC	-0.04 kcal/mol
GACGCCACGTGTGTTG	0.06 kcal/mol
CAATGCACGTGGTTTT	0 kcal/mol
